Assay results as given in the supplement of paper PMC12217912.
Some of the results follow. The full chains were built here from the parent and the listed change. Inactive controls read about 0.05.

B1: TEV protease; numbered along this chain (parent)
chain: MGESLFKGPRDYNPISSSICHLTNESDGHTTSLYGIGFGPFIITNKHLFRRNNGTLVVQSLHGVFKVKDTTTLQQHLVDGRDMIIIRMPKDFPPFPQKLKFREPQREERICLVTTNFQTKSMSSMVSDTSCTFPSGDGIFWKHWIQTKDGQCGSPLVSTRDGFIVGIHSASNFTNTNNYFTSVPKNFMELLTNQEAQQWVSGWRLNADSVLWGGHKVFMVKPEEPFQPVKEATQL

Variants of: B1
Experiment: raw area under fraction-flipped curve 0-4 h after induction (AUC4h, not background-subtracted), DNA-recorder readout of cleavage of the substrate (dimensionless); higher = more cleavage of the substrate by the protease variant
Details: temperature: 34 °C; time window: 0-4 h after rhamnose induction
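Also: Bxb1 expression induced with 0.2% (w/v) L-rhamnose at OD600 near 0.5, cultures sampled hourly, flipped fraction per protease–substrate barcode pair counted by paired-end Illumina sequencing.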

| Variant | area with substrate ENLYFES | area with substrate ENLYFFS | area with substrate ENLYFGS | area with substrate ENLYFHS | area with substrate ENLYFIS | area with substrate ENLYFKS | area with substrate ENLYFMS | area with substrate ENLYFNS | area with substrate ENLYFPS | area with substrate ENLYFRS | area with substrate ENLYFSS | area with substrate ENLYFVS | area with substrate ENLYFWS | area with substrate ENLYFYS | area with substrate ENLYFDS | area with substrate ENLYFLS | area with substrate ENLYFTS |
| --- | --- | --- | --- | --- | --- | --- | --- | --- | --- | --- | --- | --- | --- | --- | --- | --- | --- |
| L211Q | 0.073 | 0.0734 | 0.0519 | 0.068 | 0.0593 | 0.0542 | 0.0766 | 0.0638 | 0.0693 | 0.0655 | 0.0518 | 0.0563 | 0.0651 |  |  |  |  |
| N116S | 0.0758 |  | 0.0341 | 0.0535 | 0.0565 | 0.0644 | 0.0614 |  | 0.0325 | 0.0793 |  | 0.0574 |  |  |  |  |  |
| I42A | 0.0555 | 0.0804 | 0 | 0.0578 | 0.0528 | 0.0277 | 0.0633 | 0.0499 | 0.0421 | 0.0526 | 0.0409 |  |  | 0.0444 |  |  |  |
| T23N | 0.0561 |  |  | 0.0454 | 0.0585 | 0.0565 | 0.073 | 0.0537 | 0.0517 | 0.0628 |  | 0.0486 | 0.0555 | 0.0582 |  |  |  |
| L156Q | 0.0601 | 0.0661 |  | 0.0526 | 0.0387 | 0.0558 | 0.0535 | 0.0508 | 0.0536 | 0.0482 | 0.0637 | 0.0477 |  |  | 0.0512 | 0.0567 | 0.0476 |
| G162P | 0.0644 | 0.012 | 0.0441 | 0.0413 | 0.0403 |  | 0.0618 |  | 0.0703 | 0.0479 |  |  |  | 0.0373 | 0.0468 |  | 0.0485 |
| I167A | 0.0842 | 0.0623 | 0.0577 |  |  | 0.0703 | 0.0406 |  | 0.0517 | 0.071 |  | 0.0551 | 0.0494 |  |  |  | 0.0625 |
| S26W | 0.0372 |  |  | 0.0723 | 0.0578 | 0.0568 | 0.0596 | 0.0524 | 0.0667 | 0.0579 | 0.0577 | 0.0611 | 0.0526 | 0.0541 |  | 0.0672 | 0.0627 |
| V165R | 0.0583 | 0.0597 |  | 0.0675 | 0.0634 | 0.0655 | 0.0431 | 0.0532 |  | 0.0547 |  | 0.0393 | 0.0349 | 0.0085 | 0.044 | 0.0532 | 0.0474 |
| K185G | 0.0639 | 0.0734 |  |  | 0.0534 | 0.0553 | 0.0196 | 0.0642 | 0.0488 | 0.0593 |  |  |  |  | 0.0629 | 0.075 | 0.0437 |
| S171F | 0.0766 | 0.0759 | 0.0593 | 0.0562 | 0.0516 | 0.0741 | 0.0489 | 0.0469 | 0.0612 |  |  | 0.0572 |  | 0.0666 | 0.0479 |  |  |
| C152P | 0.061 | 0.0622 |  | 0.0628 | 0.0547 |  | 0.0562 | 0.0638 |  |  |  | 0.0586 |  | 0.0378 | 0.0782 | 0.0568 | 0.058 |
| G202Q | 0.0521 | 0.0687 | 0.0584 | 0.0566 | 0.057 | 0.0747 | 0.0568 | 0.0594 | 0.0701 | 0.0469 | 0.0661 |  |  |  |  | 0.0617 | 0.0408 |
| L77Y | 0.0578 |  | 0.0502 | 0.0613 | 0.0678 | 0.0572 | 0.0489 |  | 0.0469 | 0.0606 | 0.0615 | 0.0512 |  | 0.0408 |  |  |  |
| G166M | 0.0566 | 0.0388 |  | 0.0215 | 0.0479 | 0.0509 | 0.0523 |  | 0.069 | 0.0472 | 0.0514 |  | 0.0553 | 0.0407 | 0.0258 | 0.0476 | 0.0622 |
| Q234N | 0.0619 | 0.0546 |  | 0.0569 | 0.0599 | 0.0588 | 0.0686 | 0.0676 | 0.0483 | 0.0538 |  | 0.0701 |  | 0.0524 | 0.0567 | 0.0725 | 0.0559 |
| I110G | 0.06 | 0.0746 |  |  | 0.0412 |  | 0.0507 | 0.0519 | 0.0565 | 0.0909 |  | 0.0481 | 0.0578 |  |  |  |  |
